# Results published in PubChem BioAssay AID624417 (National Center for Advancing Translational Sciences (NCATS), 2012).
# In all, about 410,000 compounds went through this assay and about 6,400 (1.6%) were called active. This list was built around the results that the source calls inconclusive (neither active nor inactive); the mix of calls is not that of the screen. Calls follow the shape of the dose curve; as a rule, active = well fitted inhibition curve with a large enough effect; inconclusive = small, poorly fitted or top-dose-only effect; inactive = no such curve, though single readings can be large or run the other way. No potency is given beside an inconclusive call; the fits are too rough.
# Target: Glucagon-like peptide 1 receptor (Homo sapiens) (UniProt P43220)
# Experiment: qHTS of GLP-1 Receptor Inverse Agonists (Inhibition Mode); also: nearly all actives have a fitted effect of over 55% in size
# Settings: HEK293 GLP-1R CRE-luciferase, luminescence, 24 h, GLP-1R form is constitutively active; activity change, negative = inhibition: at 38.3 µM (top of the series) unless noted
# Procedure, shortened: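 Inverse agonism was detected as reduced cAMP-driven luciferase luminescence after 24 h compound treatment. The cells were HEK293 clones expressing constitutively active human GLP-1R with the reporter. Reporter-only and GPR119 cell lines served as counterscreen controls.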
# % is scaled to controls: 0 for no effect and ±100 for the full control effect; potency is read from the fitted curve at half-maximal effect; tags tell the direction and shape of the fitted curve.
# Sequence of UniProt P43220 (P43220 whole entry, looked up): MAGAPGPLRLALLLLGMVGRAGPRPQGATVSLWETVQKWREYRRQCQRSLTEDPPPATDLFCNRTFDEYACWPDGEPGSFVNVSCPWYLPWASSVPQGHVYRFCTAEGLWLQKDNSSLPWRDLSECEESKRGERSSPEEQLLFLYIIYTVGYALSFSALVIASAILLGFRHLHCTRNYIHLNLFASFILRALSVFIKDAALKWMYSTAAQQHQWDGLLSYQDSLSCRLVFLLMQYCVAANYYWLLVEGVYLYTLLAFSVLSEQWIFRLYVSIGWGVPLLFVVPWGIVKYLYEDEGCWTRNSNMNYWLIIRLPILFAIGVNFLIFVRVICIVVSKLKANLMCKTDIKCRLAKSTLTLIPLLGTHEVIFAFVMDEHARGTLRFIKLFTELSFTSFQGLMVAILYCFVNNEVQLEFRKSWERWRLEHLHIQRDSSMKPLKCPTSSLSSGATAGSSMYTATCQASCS
Structure (SMILES),Potency,"activity change, negative = inhibition"
O=C1CCC(C(=O)N2CCN(c3ccccc3Cl)CC2)CN1CC1CCCCC1 (stereo not given),"inconclusive [inhibitor, partial curve, poor fit]",
Cc1cc(C)c(C)c(S(=O)(=O)N2CCNCC2)c1C,"inconclusive [inhibitor, partial curve, poor fit]",
Cc1cccc(C)c1OCC(=O)NCc1ccccc1,"inconclusive [inhibitor, partial curve, poor fit]",
Cc1ccccc1C(=O)N1CCC(C(=O)Nc2ccc(C(C)C)cc2)CC1,"inconclusive [inhibitor, full curve]",
CC(C)N(C(=O)CSc1ccc(S(=O)(=O)N2CCCCC2)cn1)C(C)C,"inconclusive [inhibitor, single point]",
NNC(=O)c1[nH]c2ccc(Cl)cc2c1-c1ccccc1,"inconclusive [inhibitor, single point]",
COc1ccc(OC)c(S(=O)(=O)Nc2cccc(-c3ccc(N4CCCCCC4)nn3)c2)c1,"inconclusive [inhibitor, partial curve, poor fit]",
COc1ccccc1N1CCN(C(=O)c2cc3c(=O)oc4ccc(C)cc4c3s2)CC1,,inactive: 8.37%
CCN1CCN(Cc2c(C)[nH]c3ccc(OC)cc3c2=O)CC1,,inactive: -2.21%
Cc1ccc(C(=O)Nc2ccccc2-c2ccccc2)cc1S(=O)(=O)Nc1ccccc1,"inconclusive [inhibitor, single point]",
O=C(Nc1cc(Cl)ccc1Oc1ccccc1)c1ccc(F)cc1,"inconclusive [inhibitor, single point]",
CC(/C=N/NC(=O)CN1CCN(Cc2ccc(Cl)cc2)CC1)=C\c1ccco1,"inconclusive [inhibitor, single point]",
O=C(NCc1ccc(Cl)cc1)c1ccncc1,,inactive: 23.8%
CCN1CCN(CCCN(Cc2ccco2)C(=S)Nc2cccc(Cl)c2C)CC1,"inconclusive [inhibitor, partial curve, poor fit]",
CCCc1nnc(SCC(=O)Nc2nnc(CC)s2)n1CC1CCCO1 (stereo not given),,inactive: 11.3%
O=C(Cn1c(=O)n(CCc2ccccc2)c(=O)c2c3c(sc21)CCCC3)Nc1ccc(F)c(F)c1,,inactive: 13.3%
Brc1ccc(CN2CCc3nc(N4CCN(c5ncccn5)CC4)ncc3C2)cc1,,inactive: -21.9%
CC(NC(=O)OCc1ccccc1)c1ccccc1 (stereo not given),"inconclusive [inhibitor, single point]",
CCOc1ccccc1Nc1sc(C(=O)c2ccc(Cl)cc2)c(N)c1C(=O)NCCc1ccccc1,"inconclusive [inhibitor, single point]",
Cc1ccc2c(c1)[C@H]1[C@H](CO2)[C@H](c2ccccc2)[C@]2(C)C(=O)Nc3cc(F)c(F)cc3C(=O)N12,"inconclusive [inhibitor, partial curve, poor fit]",
CCOc1cc(/C=N/Nc2cc(C)nc3ccc(C)cc23)ccc1O,"inconclusive [inhibitor, partial curve, poor fit]",
Fc1ccc(N2CCN(C(c3cccs3)c3nnnn3CCc3ccccc3)CC2)cc1 (stereo not given),"inconclusive [inhibitor, partial curve, poor fit]",

Structure (SMILES),Potency,"activity change, negative = inhibition"
O=C(NC1=NCCS1)c1ccc(OCC2CCCO2)cc1 (stereo not given),"inconclusive [inhibitor, single point]",
COc1ccc(-c2nnc(Nc3nc4c(OC)cccc4s3)o2)cc1,"inconclusive [inhibitor, single point]",
COC(=O)[C@@]12CCCN1[C@H](c1ccc(-c3ccccc3)cc1)[C@@H]1C(=O)N(C)C(=O)[C@@H]12,"inconclusive [inhibitor, partial curve, poor fit]",
CCOC(=O)c1c(C)c(C(=O)NCc2ccc(Cl)cc2)c(C)n1CC,,inactive: -13.5%
CCOC(=O)C1=C(C)NC2=C(C(=O)CC(c3cccs3)C2)C1c1cccs1 (stereo not given),"inconclusive [inhibitor, partial curve, poor fit]",
COc1ccc(NC(=O)CSc2nc3c(c(=O)[nH]2)CCC3)cc1,,inactive: 2.06%
Cn1cc(C(=O)C(=O)NC2CCCCC2)c2ccccc21,"inconclusive [inhibitor, single point]",
CN(c1cccc(NC(=O)c2ccc(C(C)(C)C)cc2)c1)S(C)(=O)=O,"inconclusive [inhibitor, partial curve]",
O=C(NCc1ccccc1Cl)c1ccc2nc([C@@H]3O[C@H](CO)[C@H](O)[C@H](O)[C@H]3O)[nH]c2c1,,inactive: 9.51%
CCCN1CCN(c2ncnc3sc(C(=O)Nc4cccc(Cl)c4C)c(C)c23)CC1,"inconclusive [inhibitor, single point]",
O=C(NCc1ccncc1)c1ccc(Oc2ccccc2)cc1,"inconclusive [inhibitor, full curve, poor fit]",
O=C(NCCc1ccc(Cl)cc1)c1nc(-c2cccc(F)c2)n2c1CCCCC2,"inconclusive [inhibitor, partial curve, poor fit]",
CC(=O)c1cccc(NC(=O)c2ccc(CN3CCc4ccccc4C3)cc2)c1,"inconclusive [inhibitor, partial curve, poor fit]",
COc1ccc(-n2c(-c3ccccc3)cc3c2CCCC3=O)cc1,"inconclusive [inhibitor, partial curve, poor fit]",
O=C(NC(=S)NC(CO)Cc1ccccc1)c1ccc(F)cc1 (stereo not given),"inconclusive [inhibitor, single point]",
O=C(NCC(c1ccco1)N1CCc2ccccc21)c1ccccc1F (stereo not given),"inconclusive [inhibitor, single point]",
CCCn1c2c(c(O)c(C(=O)NCCCN(CC)CC)c1=O)CCCC2,"inconclusive [inhibitor, single point]",
COc1ccc(Br)c(C(=O)Nc2cccc(S(=O)(=O)N3CCOCC3)c2)c1,,inactive: -10.6%
Cc1ccc(-n2nc(C(=O)Nc3cccc(C#N)c3)c3c4ccccc4n(C)c3c2=O)cc1,,inactive: -4.39%
COC(=O)c1ccccc1S(=O)(=O)N1CCC(C(=O)NCCC2=CCCCC2)CC1,"inconclusive [inhibitor, single point]",
COc1cccc(/C=N/N=C(\N)c2nonc2N)c1O,"inconclusive [inhibitor, full curve, poor fit]",
Cc1ccc(CN2CC(=O)N3[C@H]4c5ccccc5OC[C@@H]4[C@H](c4ccccc4)[C@]3(C)C2=O)cc1,"inconclusive [inhibitor, partial curve, poor fit]",

Structure (SMILES),Potency,"activity change, negative = inhibition"
CC(=O)Nc1ccc(NC(=O)C2C3CCC(C3)C2C(=O)O)cc1 (stereo not given),,inactive: 1.36%
Cc1cc2oc(=O)cc(-c3ccccc3)c2c(C)c1-c1ccc(N(C)C)cc1,"inconclusive [inhibitor, single point]",
CCn1c(C)nc2cc(NC(=O)Nc3cccc(C(C)=O)c3)ccc21,"inconclusive [inhibitor, partial curve, poor fit]",
COC(=O)c1ccc(NC(=O)C2CC(=O)N(c3cc(C)ccc3C)C2)cc1 (stereo not given),"inconclusive [inhibitor, single point]",
CN(C(=O)c1ccc2c(c1)N(Cc1ccccc1F)C(=O)c1ccccc1S2(=O)=O)C1CCCCC1,,inactive: -29.1%
COc1ccc(-c2csc(N3CCC(c4ccccc4)CC3)n2)cc1,,inactive: 3.93%
Cn1/c(=N\NC(=O)C2CCCCC2)sc2ccccc21,,inactive: 7.49%
NCCC1CN(C(=O)OCc2ccccc2)c2ccccc21 (stereo not given),"inconclusive [inhibitor, single point]",
COc1ccc(CCN(C)C(=O)CCc2nnc(-c3ccccc3)o2)cc1OC,,inactive: 38.6%
O=C(CCc1ccc(O)cc1)NN=Cc1cc(Br)ccc1O,"inconclusive [inhibitor, partial curve, poor fit]",
CC1(C)OCC(CNC(=O)c2[nH]c(C(F)(F)F)nc2-c2ccccc2)O1 (stereo not given),,inactive: 13.1%
O=C(Nc1cc(Cl)ccc1Cl)c1cc(S(=O)(=O)N2CCCc3ccccc32)ccc1F,,inactive: 16.9%
CCOc1ccc2nc(NC(=O)COC)sc2c1,"inconclusive [inhibitor, partial curve, poor fit]",
CCN(CC)CCNC(=O)c1[nH]c2ccccc2c1Sc1ccc(Cl)cc1,"inconclusive [inhibitor, partial curve, poor fit]",
CC(C)NC(=O)C1(C)CCCCN1Cc1ccc(OCc2ccccc2)cc1 (stereo not given),"inconclusive [inhibitor, partial curve, poor fit]",
CCOC(CNC(=O)c1ccc2c(c1)ncn2-c1ccc(F)c(F)c1)OCC,,inactive: 39.2%
COc1ccccc1CN1C[C@@H]2C[C@@H](c3[nH]c4ccc(C)cc4c3C)N3CCC[C@@]23C1=O,"inconclusive [inhibitor, partial curve]",
Cc1ccc(NS(=O)(=O)c2cc(Br)cnc2N)cc1C,"inconclusive [inhibitor, partial curve, poor fit]",
Cc1ccccc1Cn1cc(NC(=O)c2cc(C3CC3)on2)cn1,"inconclusive [inhibitor, partial curve, poor fit]",
Cc1cc(OCCN2CC(C)OC(C)C2)ccc1[N+](=O)[O-] (stereo not given),,inactive: -2.3%
COc1ccc(NC(=O)C(=O)NCC(c2cccnc2)N2CCc3ccccc3C2)cc1 (stereo not given),"inconclusive [inhibitor, single point]",
